Source: PubChem BioAssay AID445 (National Center for Advancing Translational Sciences (NCATS), 2006)
Hit rate of the full screen: of about 110,000 compounds, about 40 (0.04%) were called active. This list was built around the results that the source calls inconclusive (neither active nor inactive); the mix of calls is not that of the screen. The call rests on the fitted dose curve; in most records, active means well fitted curve in the direction sought with a large enough effect in the signal ratio (not every such curve was filed as active); inconclusive means small, poorly fitted or top-dose-only effect, or a change in a side signal; inactive means flat fitted curve, though single readings scatter; the % refers to the signal ratio. Potencies of inconclusive entries are doubtful fits and often do not repeat.

assay: IkB Signaling; settings: ABC-DLBCL IkBa-CBG/CBR dual luciferase ratio (green luciferase fused to IkBa over red control in OCI-Ly3 lymphoma cells), 4 h; IkBa stabilization activation: at 57.1 µM (top of the series), scaled: untreated 0%, proteasome inhibitor 100% unless noted;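 on IkBa stabilization activation: 0% = basal untreated cells and 100% = reference inhibitor full response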
Procedure, shortened: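 Curves were fitted separately to fusion (green), unfused (red) and ratio luminescence, then classed by r2, magnitude and activity. Cells: OCI-Ly3, 4 h compound plus doxycycline at 37C; 10 uM MG-132 defined full response.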
Potency means the concentration at half of the fitted maximal effect.

| Compound | IkBa stabilization activation | Potency |
| --- | --- | --- |
| COc1ccc(C(=O)Nc2ccccc2)cc1S(=O)(=O)Nc1ccc(Br)cc1 | inconclusive: 2.02% [signal inhibitor] |  |
| Cn1c(-c2ccc(F)cc2)cnc1SCC(=O)Nc1ccccc1N1CCOCC1 |  | inconclusive: 0.0251 µM [signal inhibitor, full curve] |
| O=C(OCc1cc(=O)n2nc(C3CC3)sc2n1)c1ccc(NC(=O)c2ccccc2Cl)cc1 | inconclusive: 4.75% [signal inhibitor] |  |
| CCc1ccc2oc(C(=O)Nc3cc(Cl)ccc3OC)cc(=O)c2c1 | inactive |  |
| COC(=O)CSc1nnc(-c2cccs2)n1-c1ccc(Cl)cc1 |  | inconclusive: 10 µM [signal inhibitor, partial curve] |
| O=C(Nc1ccc2nc(SCC(=O)N3CCCc4ccccc43)sc2c1)c1ccccc1F | inconclusive: 0.097% [signal inhibitor] |  |
| Cc1ccc(NC(=O)CCn2nc(-c3ccccc3)c3ccccc3c2=O)c(C)c1 | inconclusive: 1.14% [signal inhibitor] |  |
| CCc1ccc(C2=C(C)C(N3CCC(C(=O)Nc4ccc(F)cc4)CC3)=NS2(=O)=O)cc1 | inconclusive: -2.28% [signal inhibitor] |  |
| COc1cccc(CNc2ncnc3c2nnn3C)c1 | inactive |  |
| N#Cc1cccc(-c2cc(-n3ccnc3)ncn2)c1 | inactive: -0.356% [at 11.4 µM, scaled: untreated 0%, proteasome inhibitor 100%] |  |
| Cc1cccc2cc(CN(C(=O)c3cccc(Cl)c3)c3ccccc3)c(=O)[nH]c12 | inconclusive: 10.8% [signal inhibitor] |  |
| CCN(C(=O)CSc1nc(-c2ccccc2)no1)c1cccc(C)c1 |  | inconclusive: 3.16 µM [signal inhibitor, partial curve] |
| CCCCc1c(C)nn(-c2nnc3c4ccccc4n(CC)c3n2)c1C | inactive |  |
| COc1ccccc1Nc1nn2c(=O)c3ccc(C(=O)NC4CCC(C)CC4)cc3nc2s1 (centres undefined) | inconclusive: -2.18% [signal inhibitor] |  |
| COc1ccccc1C(=O)Nc1cccc(OCc2cc(=O)n3c4c(sc3n2)CCCC4)c1 | inconclusive: 1.25% [signal inhibitor] |  |
| COc1ccc(NC(=O)C2(S(=O)(=O)c3ccc(C)cc3)CC2)c(OC)c1 | inactive |  |
| COc1ccc(CCNC(=O)C2CCN(Cc3nc(-c4cccc(Cl)c4)oc3C)CC2)cc1OC | inconclusive: -1.5% [signal inhibitor] |  |
| CCCN(CCC)C(=O)Cn1c(=O)n(-c2ccc(CC)cc2)c(=O)c2c3c(sc21)CCC3 | inactive |  |
| CCOc1ccc(NC(c2ccc(Cl)cc2)c2nnc(-c3cccc(F)c3)o2)cc1 (centres undefined) | inconclusive: 6.34% [signal inhibitor] |  |
| Cc1ccc(CN(C(=O)COc2cccc(Cl)c2)c2ccccn2)o1 | inconclusive: -1.13% [signal inhibitor] |  |
| CCSc1ncc(Cl)c(C(=O)Nc2ccc(S(=O)(=O)N3CCCCC3CC)cc2)n1 (centres undefined) | inconclusive: -1.56% [signal inhibitor] |  |
| COc1cc(O)ccc1-c1nc2ccc(Br)cn2c1Nc1ccccc1C | inconclusive: -10.1% [signal inhibitor] |  |
| O=C(CSc1nccn1Cc1ccc(F)cc1)NC1CCCC1 | inconclusive: -0.389% [signal inhibitor] |  |

| Compound | IkBa stabilization activation | Potency |
| --- | --- | --- |
| COc1ccccc1OCCn1cc(C(=O)c2ccco2)c2ccccc21 | inconclusive: 1.04% [signal inhibitor] |  |
| Cc1cc(Cl)ccc1NC(=O)CS(=O)(=O)c1cccc2nsnc12 | inactive |  |
| CCOC(=O)c1ccc(NC(=O)C2CCN(S(=O)(=O)Cc3ccccc3)CC2)cc1 | inconclusive: 3.74% [signal inhibitor] |  |
| O=S(=O)(Nc1ccc(S(=O)(=O)N2CCCCC2)cc1)c1ccc(Br)s1 | inconclusive: 7.61% [signal inhibitor] |  |
| Cc1ccc(C(=O)NCCSc2c[nH]c3ccccc23)cc1C | inconclusive: 5.45% [signal inhibitor] |  |
| Cc1cccc(NC(=O)c2ccc(F)c(S(=O)(=O)NCc3ccc4c(c3)OCO4)c2)c1 | inconclusive: 2.58% [signal inhibitor] |  |
| CCOc1ccc(N(CC)C(=O)c2cc3c(s2)-c2ccc(Cl)cc2SC3)cc1 | inactive |  |
| Cc1cc(C)cc(NC(=O)CSc2oc(-c3cccs3)nc2S(=O)(=O)c2ccc(Br)cc2)c1 | inconclusive: -4.14% [signal inhibitor] |  |
| Cc1nc2ccccc2c(=O)n1NCc1cc(Br)cs1 | inactive |  |
| Cn1nnc(NC(=O)c2ccc(C(C)(C)C)cc2)n1 | inactive |  |
| COC(=O)c1sc2cccc(F)c2c1S(=O)(=O)NC(C)c1ccccc1 (centres undefined) | inconclusive: -3.97% [signal inhibitor] |  |
| CCc1ccc(NCc2cc3ccc(OC)cc3n(CC(=O)Nc3ccccc3OC)c2=O)cc1 | inconclusive: 2.52% [signal inhibitor] |  |
| COC(=O)c1ccccc1NC(=O)Nc1cccnc1 |  | inconclusive: 20 µM [signal inhibitor, partial curve] |
| COc1ccc(S(=O)(=O)NCc2ccc(C(=O)N3CCN(c4ccccn4)CC3)cc2)cc1 | inconclusive: 2.27% [signal inhibitor] |  |
| COc1ccc(OCc2nc(-c3ccc(OC)c(OC)c3)no2)cc1 | inconclusive: 5.55% [signal inhibitor] |  |
| CCN1CC2=C(OC(N)=C(C#N)C2c2cccs2)/C(=C/c2cccs2)C1 (centres undefined) | inconclusive: 14.3% [signal inhibitor] |  |
| COCCn1c(=O)c(-c2ccc(OC)cc2)nc2cnc(N3CCNCC3)nc21 | inactive: -0.854% [at 11.4 µM, scaled: untreated 0%, proteasome inhibitor 100%] |  |
| COc1cccc(-n2ccnc2SCC(=O)Nc2nc3ccc(C)cc3s2)c1 | inactive |  |
| Cc1nnc(SCCc2ccccc2)[nH]c1=O | inconclusive: 7.69% [signal inhibitor] |  |
| O=C(CSc1nc2ccccc2[nH]1)c1cccs1 |  | inconclusive: 25.1 µM [signal inhibitor, partial curve] |
| O=C(CCNc1ccc(F)cc1)c1ccco1 | inconclusive: -2.63% [signal inhibitor] |  |
| COc1cccc(NC(=O)CSc2nnc3[nH]c(=O)cc(-c4ccccc4)n23)c1 | inconclusive: 6.63% [signal inhibitor] |  |
| CCOC(=O)C1CCCN(C(=O)c2ccc(C)c(NC(=O)c3nsc4ccccc34)c2)C1 (centres undefined) | inconclusive: -1.18% [signal inhibitor] |  |

| Compound | IkBa stabilization activation | Potency |
| --- | --- | --- |
| COc1ccc(CCNc2oc(/C=C/c3ccc(OC)c(OC)c3)nc2C#N)cc1 | inactive |  |
| Nc1c(S(=O)(=O)c2ccccc2)c2nc3ccccc3nc2n1/N=C/c1cccc(O)c1 | inconclusive: 5.96% [signal inhibitor] |  |
| Cc1ccc2cc(S(=O)(=O)NCCCC(=O)O)ccc2c1 |  | inconclusive: 10 µM [signal inhibitor, partial curve] |
| COc1ccc2c(c1)OCC1=C2CCC2(C)C(=O)CC=C12 (centres undefined) | inconclusive: 16.9% [signal inhibitor] |  |
| CCCOc1ccccc1C(=O)N1CCCCC1CCN1CCCCC1 (centres undefined) | inactive |  |
| Cc1ccc(C)c(-c2ccc(=O)n(C(C)C(=O)Nc3ccccc3C(F)(F)F)n2)c1 (centres undefined) | inconclusive: 0.518% [signal inhibitor] |  |
| O=C(NC1CC(=O)N(c2cccc(F)c2)C1)c1ccc(S(=O)(=O)N2CCCCC2)cc1 (centres undefined) | inconclusive: -2.15% [signal inhibitor] |  |
| Cc1ccc(OCC(=O)Nc2nnc(SCc3cc(=O)n4cc(C)ccc4n3)s2)cc1 | inconclusive: 2.95% [signal inhibitor] |  |
| O=C(CSc1nc2c(oc3ccccc32)c(=O)[nH]1)Nc1cccc(Cl)c1 | inconclusive: 4.35% [signal inhibitor] |  |
| CCOC(=O)c1cccc(NC(=O)CCNS(=O)(=O)c2cccc3nonc23)c1 | inconclusive: -1.38% [signal inhibitor] |  |
| Cc1ccc(CCNC(=O)c2ccc(CSCc3ccc(C)cc3)o2)cc1 | inconclusive: 5.25% [signal inhibitor] |  |
| COc1ccc(-c2nc3scc(CCNS(=O)(=O)c4cccc(C(C)=O)c4)n3n2)cc1 | inconclusive: -0.527% [signal inhibitor] |  |
| Cc1ccc(NC(=O)CSc2nnc(C)c(=O)[nH]2)cc1 | inactive |  |
| CC(C)n1c(SCC(=O)N2c3ccccc3Sc3ccccc32)nc2c1c(=O)n(C)c(=O)n2C | inactive |  |
| CCNc1ncc2ncc(=O)n(Cc3cccs3)c2n1 | inactive: 0.352% [at 11.4 µM, scaled: untreated 0%, proteasome inhibitor 100%] |  |
| Cc1cc(C)c(S(=O)(=O)Nc2cccc(-c3cn4ccccc4n3)c2)c(C)c1 | inactive |  |
| COCCn1c(-c2ccc(Cl)cc2)cnc1SCC(=O)NCc1cccs1 | inconclusive: -1.23% [signal inhibitor] |  |
| Cc1ccc(C)c(CN2C(=O)c3ccccc3S(=O)c3ccc(C(=O)NCc4ccco4)cc32)c1 (centres undefined) | inconclusive: 1.96% [signal inhibitor] |  |
| Cc1ccc(NC(=O)Cn2cc(S(=O)(=O)NC(C)C)c(S(=O)(=O)NC(C)C)c2)cc1Cl | inconclusive: 8.53% [signal inhibitor] |  |
| COC(=O)c1c(SCC(=O)Nc2ccccc2OC)[nH]c2ccccc2c1=O | inconclusive: 3.11% [signal inhibitor] |  |
| Cc1ccc(C(=O)Oc2ccc3c(c2)ncn3C)cc1 | inactive |  |
| Cc1cc2ccccc2n1-c1ccc(C(=O)N2CCC(C(=O)NCc3ccc(F)cc3)CC2)s1 | inconclusive: 4.52% |  |
| COc1ccc(Oc2nc3c(c(=O)n(Cc4ccccc4Cl)c(=O)n3C)n2C)cc1 | inconclusive: 10.7% [signal inhibitor] |  |
